# In publication PMC11995724, “Antibiotic target discovery by integrated phenotypic and activity-based profiling of electrophilic fragments” (Cell chemical biology, 2025):
# In all, about 3,200 compounds went through this assay and about 110 (3.4%) showed an effect of 50% or more. The list shows a part of the results.
# Test system: T1, V. cholerae SAD30
# T1 construct: SAD30
# Design: species or system S. aureus MSSA476 (TSB) or V. cholerae SAD30 (LB); 384-well bacterial growth screen at 25 uM, OD600 relative to DMSO control
# Details: relative growth, OD600, LB; 25 µM; inhibitor
row,SMILES,% of control remaining [%]
1,"CC(Cl)C(=O)NCC1CCN(C)c2ccccc21 (stereo not drawn) [7-J11, 2-chloro-N-[(1-methyl-1,2,3,4-tetrahydroquinolin-4-yl)methyl]propanamide]",72.6912
2,"O=C(CN(CC1CCCO1)C(=O)CCl)N1CCCC1 (stereo not drawn) [7-D18, 2-chloro-N-[2-oxo-2-(pyrrolidin-1-yl)ethyl]-N-[(oxolan-2-yl)methyl]acetamide]",74.4094
3,"Cn1ccnc1C(NC(=O)CCl)c1ccccc1 (stereo not drawn) [4-H20, 2-chloro-N-[(1-methyl-1H-imidazol-2-yl)(phenyl)methyl]acetamide]",107.138
4,"COc1cc(C=C(C#N)C(=O)Nc2c(C)cc(C)cc2C)cc(OC)c1 [8-A18, 2-cyano-3-(3,5-dimethoxyphenyl)-N-(2,4,6-trimethylphenyl)prop-2-enamide]",89.8029
5,"Cl.NC(=O)c1ccccc1N1CCC(NC(=O)CCl)CC1 [7-P14, 2-[4-(2-chloroacetamido)piperidin-1-yl]benzamide hydrochloride]",88.9476
6,"C=CC(=O)NCc1ncoc1C(F)(F)F [3-E18, N-{[5-(trifluoromethyl)-1,3-oxazol-4-yl]methyl}prop-2-enamide]",92.2661
7,"Cc1ccc(NC(=O)C(C#N)=Cc2ccccc2OC(F)F)c(C)c1 [9-K17, 2-cyano-3-[2-(difluoromethoxy)phenyl]-N-(2,4-dimethylphenyl)prop-2-enamide]",90.6186
8,"Cc1ccc(NC(=O)C2CSCN2C(=O)CCl)c(C)c1 (stereo not drawn) [5-M07, 3-(2-chloroacetyl)-N-(2,4-dimethylphenyl)-1,3-thiazolidine-4-carboxamide]",94.1473
9,"O=C(CCl)NC1CCC(c2nc(-c3ccccc3)n[nH]2)CC1 (stereo not drawn) [6-G19, 2-chloro-N-[4-(3-phenyl-1H-1,2,4-triazol-5-yl)cyclohexyl]acetamide]",92.9756
10,"CC(Cl)C(=O)N(c1cccc(C#N)c1)C1CCC1 (stereo not drawn) [6-N22, 2-chloro-N-(3-cyanophenyl)-N-cyclobutylpropanamide]",93.8857
11,"O=C(CCl)NCc1ccc(C(=O)N2CCOCC2)cc1 [5-L14, 2-chloro-N-{[4-(morpholine-4-carbonyl)phenyl]methyl}acetamide]",97.846
12,"C=CC(=O)N1CCC(C(=O)NCC(O)c2c(F)cccc2F)CC1 (stereo not drawn) [2-P14, N-[2-(2,6-difluorophenyl)-2-hydroxyethyl]-1-(prop-2-enoyl)piperidine-4-carboxamide]",88.4975
13,"CC(Cl)C(=O)N1CCC(Cc2ccccc2)CC1 (stereo not drawn) [5-K21, 1-(4-benzylpiperidin-1-yl)-2-chloropropan-1-one]",81.5383
14,"CC(Cl)C(=O)N(C)c1ccccc1 (stereo not drawn) [5-D06, 2-chloro-N-methyl-N-phenylpropanamide]",94.6517
15,"CC(C)NC(=O)C(C#N)=Cc1ccc(C(C)C)cc1 [9-I11, 2-cyano-N-(propan-2-yl)-3-[4-(propan-2-yl)phenyl]prop-2-enamide]",84.5003
16,"Cc1cc(C(=O)CCl)c(F)cc1F [10-O03, 2-chloro-1-(2,4-difluoro-5-methylphenyl)ethan-1-one]",34.9114
17,"C=CC(=O)NC(Cc1nc(C)no1)c1ccccc1 (stereo not drawn) [1-B22, N-[2-(3-methyl-1,2,4-oxadiazol-5-yl)-1-phenylethyl]prop-2-enamide]",133.464
18,"C=CC(=O)N1CCC(C(=O)Nc2cccc(N3CCCC3=O)c2)CC1 [2-H04, N-[3-(2-oxopyrrolidin-1-yl)phenyl]-1-(prop-2-enoyl)piperidine-4-carboxamide]",96.5261
19,"Cc1ccc(Oc2ccc(NC(=O)CCl)cc2)cc1 [4-K03, 2-chloro-N-[4-(4-methylphenoxy)phenyl]acetamide]",93.1637
20,"N#CC(=Cc1ccncc1)C(=O)Nc1cccc(Cl)c1 [8-B19, N-(3-chlorophenyl)-2-cyano-3-(pyridin-4-yl)prop-2-enamide]",77.5663
21,"C=CC(=O)N1CCC(C(=O)NCc2ccccc2)CC1 [1-I05, N-benzyl-1-(prop-2-enoyl)piperidine-4-carboxamide]",92.5262
22,"COc1ccc(N2C(=O)C=CC2=O)c([N+](=O)[O-])c1 [10-L11, 1-(4-methoxy-2-nitrophenyl)-2,5-dihydro-1H-pyrrole-2,5-dione]",30.3916
23,"CC(Cl)C(=O)N(C)Cc1cc(Cl)cn1C (stereo not drawn) [6-P21, 2-chloro-N-[(4-chloro-1-methyl-1H-pyrrol-2-yl)methyl]-N-methylpropanamide]",102.531

row,SMILES,% of control remaining [%]
1,"CC(C)c1ccccc1NC(=O)CCl [4-F06, 2-chloro-N-[2-(propan-2-yl)phenyl]acetamide]",100.582
2,"N#CC(=Cc1cccc(Oc2ccccc2)c1)C(=O)NC(N)=O [8-D07, {2-cyano-2-[(3-phenoxyphenyl)methylidene]acetyl}urea]",81.1013
3,"CCc1cccc(CC)c1NC(=O)C(C#N)=Cc1ccc(C)o1 [8-P11, 2-cyano-N-(2,6-diethylphenyl)-3-(5-methylfuran-2-yl)prop-2-enamide]",57.308
4,"C=CC(=O)NCc1c(C)nc2ccccn12 [1-C08, N-({2-methylimidazo[1,2-a]pyridin-3-yl}methyl)prop-2-enamide]",93.2735
5,"CC(=Cc1ccccc1)C=C(C#N)C(=O)NC1CC1 [9-F12, 2-cyano-N-cyclopropyl-4-methyl-5-phenylpenta-2,4-dienamide]",87.8994
6,"C=CC(=O)NCCCn1ccnc1C#N [2-N05, N-[3-(2-cyano-1H-imidazol-1-yl)propyl]prop-2-enamide]",93.5926
7,"CCOc1ccc(C=C(C#N)C(=O)Nc2ccncc2)cc1 [8-I22, 2-cyano-3-(4-ethoxyphenyl)-N-(pyridin-4-yl)prop-2-enamide]",87.4915
8,"Cc1ccc(NC(=O)C(C#N)=Cc2ccc3c(c2)OCCO3)c(C)c1 [9-H03, 2-cyano-3-(2,3-dihydro-1,4-benzodioxin-6-yl)-N-(2,4-dimethylphenyl)prop-2-enamide]",99.3202
9,"CC(Cl)C(=O)N[C@H]1C[C@@H]1c1cnn(-c2ccccc2)c1 (mixture of isomers) [7-M08, rac-2-chloro-N-[(1R,2S)-2-(1-phenyl-1H-pyrazol-4-yl)cyclopropyl]propanamide]",70.3122
10,"CC(Cl)C(=O)NCCc1nnnn1-c1ccccc1 (stereo not drawn) [7-G17, 2-chloro-N-[2-(1-phenyl-1H-1,2,3,4-tetrazol-5-yl)ethyl]propanamide]",78.3744
11,"Cc1ccccc1N1C(=O)C=CC1=O [10-J13, 1-(2-methylphenyl)-2,5-dihydro-1H-pyrrole-2,5-dione]",23.0664
12,"C=CC(=O)N1CCCC(n2cncn2)C1 (stereo not drawn) [2-C03, 1-[3-(1H-1,2,4-triazol-1-yl)piperidin-1-yl]prop-2-en-1-one]",109.65
13,"Cc1noc(C23CC(CN2C(=O)C(C)Cl)C3)n1 (stereo not drawn) [7-E10, 2-chloro-1-[1-(3-methyl-1,2,4-oxadiazol-5-yl)-2-azabicyclo[2.1.1]hexan-2-yl]propan-1-one]",77.9779
14,"CC(Cl)C(=O)N1C2C=C(c3ccccc3)CC1CC2 (stereo not drawn) [7-C09, 2-chloro-1-{3-phenyl-8-azabicyclo[3.2.1]oct-2-en-8-yl}propan-1-one]",69.9157
15,"Cl.O=C(CN1CCN(C(=O)CCl)CC1)Nc1ccc(F)cc1 [4-J20, 2-[4-(2-chloroacetyl)piperazin-1-yl]-N-(4-fluorophenyl)acetamide hydrochloride]",97.8219
16,"N#CC(=Cc1ccccc1)C(=O)Nc1nnn[nH]1 [8-J14, 2-cyano-3-phenyl-N-(1H-1,2,3,4-tetrazol-5-yl)prop-2-enamide]",68.1849
17,"N#CC(=Cc1ccc([N+](=O)[O-])c(Cl)c1)C(=O)NC1CCCCC1 [8-B08, 3-(3-chloro-4-nitrophenyl)-2-cyano-N-cyclohexylprop-2-enamide]",77.2944
18,"C=CC(=O)N1CCC(c2ccnn2C)CC1 [2-I15, 1-[4-(1-methyl-1H-pyrazol-5-yl)piperidin-1-yl]prop-2-en-1-one]",94.8278
19,"CC(Cl)C(=O)N(Cc1cccs1)[C@@H]1C=C[C@H](CO)C1 (stereo partly drawn) [7-E14, 2-chloro-N-[(1S,4R)-4-(hydroxymethyl)cyclopent-2-en-1-yl]-N-[(thiophen-2-yl)methyl]propanamide]",72.8234
20,"O=C(CCl)c1ccc2[nH]c(=O)[nH]c2c1 [10-I14, 5-(2-chloroacetyl)-2,3-dihydro-1H-1,3-benzodiazol-2-one]",105.513
21,"N#CC(=Cc1cccc(O)c1)C(=O)NCCc1ccccc1 [8-N03, 2-cyano-3-(3-hydroxyphenyl)-N-(2-phenylethyl)prop-2-enamide]",85.4521
22,"COCCNC(=O)C(C#N)=Cc1ccc(O)cc1 [9-D22, 2-cyano-3-(4-hydroxyphenyl)-N-(2-methoxyethyl)prop-2-enamide]",97.0088
